PubChem BioAssay AID1468 (National Center for Advancing Translational Sciences (NCATS), 2008)
“And” between values parts separate entries of the source, which are not always exact repeats. Equal values may be shown once. Out of some 280,000 compounds screened, about 1,100 (0.39%) were called active. This list was built around the results that the source calls inconclusive (neither active nor inactive); the mix of calls is not that of the screen. Calls follow the shape of the dose curve; as a rule, active = well fitted inhibition curve with a large enough effect; inconclusive = small, poorly fitted or top-dose-only effect, or effect the other way; inactive = flat fitted curve, though single readings scatter. Where the call is inconclusive, the potency comes from a doubtful curve fit.

The compounds below were run against Microtubule-associated protein tau (Homo sapiens) (UniProt P10636) (assay: qHTS for Inhibitors of Tau Fibril Formation, Fluorescence Polarization). Conditions: K18 P301L tau heparin fibrillization, Alexa594 FP, 6 h; series mostly up to 57.7 µM.
Chain of UniProt P10636 (P10636 whole entry, looked up): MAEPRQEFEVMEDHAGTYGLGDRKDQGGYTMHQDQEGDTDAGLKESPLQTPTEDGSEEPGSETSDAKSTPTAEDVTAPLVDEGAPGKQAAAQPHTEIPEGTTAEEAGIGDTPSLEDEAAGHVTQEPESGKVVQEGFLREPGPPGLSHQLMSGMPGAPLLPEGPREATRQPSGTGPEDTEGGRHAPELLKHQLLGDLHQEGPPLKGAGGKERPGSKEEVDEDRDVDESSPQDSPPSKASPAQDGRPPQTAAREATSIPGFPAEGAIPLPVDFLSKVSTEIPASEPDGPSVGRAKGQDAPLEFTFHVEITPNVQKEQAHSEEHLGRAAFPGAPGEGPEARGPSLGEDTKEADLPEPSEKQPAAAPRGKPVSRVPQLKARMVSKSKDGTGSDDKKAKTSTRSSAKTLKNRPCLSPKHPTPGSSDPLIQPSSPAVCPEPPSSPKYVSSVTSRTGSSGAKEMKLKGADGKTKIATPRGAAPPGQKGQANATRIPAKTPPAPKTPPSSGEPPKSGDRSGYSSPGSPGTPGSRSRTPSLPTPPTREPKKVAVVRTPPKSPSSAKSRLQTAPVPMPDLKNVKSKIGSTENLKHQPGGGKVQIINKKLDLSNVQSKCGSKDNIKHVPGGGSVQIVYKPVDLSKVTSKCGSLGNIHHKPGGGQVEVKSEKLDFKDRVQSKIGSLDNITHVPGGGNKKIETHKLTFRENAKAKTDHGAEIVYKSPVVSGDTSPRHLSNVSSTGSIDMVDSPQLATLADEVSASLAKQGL
Procedure, shortened: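 Quantitative HTS format: compounds meet 15 uM recombinant K18 P301L tau and Alexa 594-tau tracer in 100 mM sodium acetate pH 7; 20 uM heparin triggers fibrillization at 37 C over 6 hr; FP gives the signal.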
Also: nearly all actives have a fitted effect of over 55% in size.
Potency is read from the fitted curve at half-maximal effect; tags tell the direction and shape of the fitted curve.

SMILES	Potency
CCC1=NN(C(=O)c2ccc(Br)cc2)C(O)(c2ccccc2)C1 (configuration not stated)	inconclusive: 17.8 µM [activator, single point]
COc1cc(NC(=O)c2nccnc2N)cc(C(=O)Nc2cccc(C(F)(F)F)c2)c1	inconclusive: 28.2 µM [inhibitor, partial curve]
Cc1cc(-c2nc3ncccc3o2)ccc1NC(=O)COc1cc(C)c(Cl)c(C)c1	inactive
COc1cccc(-c2nc(N3CC(C)CC(C)C3)c3ccccc3n2)c1O (configuration not stated)	inconclusive: 7.94 µM [activator, partial curve]
Cc1ccc(C(=O)CSc2nnc(CNc3nc(-c4ccccc4)cs3)n2C)cc1	inactive
CCc1ccc(OCC(=O)Nc2ccc(Cl)c(-c3nc4ncccc4o3)c2)cc1	inconclusive: 20 µM [inhibitor, partial curve]
CC(C)c1nnc(NC(=O)C2c3ccccc3Oc3ccccc32)s1	inconclusive: 25.1 µM [inhibitor, single point]
CCC(=O)Nc1nc(C)c(-c2csc(Nc3ccccn3)n2)s1	inconclusive: 35.5 µM [activator, single point]
Cc1ccc(S(=O)(=O)c2nc(C(C)(C)C)oc2N2CCOCC2)cc1	active: 39.8 µM
O=C(COC(=O)CNC(=O)c1sc2ccccc2c1Cl)Nc1cc(Cl)cc(Cl)c1	inconclusive: 2.24 µM [inhibitor, full curve, poor fit]
CC(C)(C)NC(=O)CCSc1nc(-c2ccc3c(c2)OCO3)cc(C(F)(F)F)n1	inconclusive: 39.8 µM [inhibitor, single point]
Cc1cccc(NCC(=O)N/N=C/c2cccc(Br)c2)c1	inactive
Cc1ccc(C)c(N(C)S(=O)(=O)c2ccc3[nH]cc(C(=O)NC4CCCC4)c(=O)c3c2)c1	active: 15.8 µM
CCOc1ccc(S(=O)(=O)NCC(c2cccs2)S(=O)(=O)c2ccc(C)cc2)cc1 (configuration not stated)	inconclusive: 15.8 µM [inhibitor, partial curve]
COC(=O)c1c(C)sc(-c2c(-c3ccc4c(c3)OCCO4)[nH]c3c2c(=O)[nH]c(=O)n3C)c1O	inconclusive: 0.0398 µM [activator, full curve, poor fit]
Cc1ccc(-n2cnc3cc(C(=O)NC4CCCCCC4)ccc32)cc1Cl	inactive
COc1ccc(NC(=O)C2CCN(S(=O)(=O)c3c(C)noc3/C=C/c3ccc(C)cc3)CC2)cc1Cl	inconclusive: 15.8 µM [inhibitor, partial curve]
CCOc1c(OC(C)=O)ccc(/C=C/c2ccc3cccc(OC(C)=O)c3n2)c1[N+](=O)[O-]	inconclusive: 28.2 µM [inhibitor, single point]
Clc1ccccc1CN1CCN(/N=C/C=C/c2ccco2)CC1	inactive
COC(=O)c1sc(NC(=O)C(C)C)c(C(=O)OC)c1C	inactive
S=C(NCCc1ccccc1)N1CCN(Cc2ccc(Cl)c(Cl)c2)CC1	inconclusive: 39.8 µM [inhibitor, single point]
COc1ccccc1NC(=O)Cn1c(=O)n(Cc2nc(-c3ccccc3)no2)c(=O)c2ccccc21	inconclusive: 44.7 µM [inhibitor, single point]
Cc1ccc(C)c(NC(=O)Nc2csc3c2CCCC3)c1	inactive

SMILES	Potency
Cc1nn(C)c(N)c1-c1ccccc1	inconclusive: 25.1 µM [inhibitor, single point]
CCOC(=O)c1cnc(SCC(=O)Nc2cc(OC)ccc2OC)nc1N	inactive
CCc1ccc(NC(=O)C2CCN(S(=O)(=O)c3c(C)noc3/C=C\c3ccc(OC)cc3)CC2)cc1	inconclusive: 39.8 µM [inhibitor, partial curve, poor fit]
Cc1ccc(CNC(=O)COc2ccc(C)nc2[N+](=O)[O-])cc1	inactive
CCCOc1ccccc1-c1nc2n[nH]nc2c(=O)[nH]1	inactive and inconclusive: 1 µM [inhibitor, single point]
Fc1ccccc1C1c2cccn2CCN1C(=S)Nc1ccc(Br)cc1 (configuration not stated)	inconclusive: 28.2 µM [inhibitor, single point]
COc1ccc(-n2nc(C(=O)NCc3ccc(F)cc3)c3c4ccccc4n(C)c3c2=O)cc1	inactive
COCCn1c(N)c(C(=S)NC(=O)c2cccs2)c(=O)[nH]c1=O	inconclusive: 39.8 µM [inhibitor, single point]
Cc1cc(NC(=O)c2ccc([N+](=O)[O-])cc2Cl)ccc1NC(=O)c1ccco1	inactive
COc1ccc(Cc2nnc(NC(=O)Cc3cccs3)s2)cc1OC	inactive
Cc1cc(C)c2cc(C(c3nnnn3C3CCCC3)N3CCOCC3)c(=O)[nH]c2c1 (configuration not stated)	inconclusive: 15.8 µM [inhibitor, partial curve, poor fit]
CCNc1ccccc(C(=O)/C=C/c2ccc3c(c2)OCO3)c1=O	inconclusive: 28.2 µM [inhibitor, partial curve]
COc1ccccc1N1CCN(C(=O)c2ccc([N+](=O)[O-])s2)CC1	inactive
COc1ccc(N2C(=O)CS(=O)(=O)C23C(=O)N(Cc2c(F)cccc2Cl)c2ccccc23)cc1 (configuration not stated)	inactive
FC(F)(F)c1ccc2c(c1)C1C=CCC1C(c1ccncc1)N2 (configuration not stated)	inconclusive: 39.8 µM [inhibitor, single point]
COc1ccc(O)c(CNn2c(-c3ccc(Br)cc3)nc3ccccc3c2=O)c1	inactive
O=c1nc2cccc3c2=c(/c1=C(\O)c1ccccc1)c1ccccc1c3=O	inconclusive: 3.55 µM [activator, partial curve, poor fit]
O=C1c2cccc3c([N+](=O)[O-])ccc(c23)C(=O)N1c1nccs1	inactive
COc1ccc(C(=O)C2=NN(C(C)=O)CC2c2ccco2)cc1 (configuration not stated)	inactive
CC(=O)Nc1cccc(C(=O)OCC(=O)c2ccccc2Cl)c1	inconclusive: 15.8 µM [inhibitor, partial curve]
O=C(CN1CCN(CC(=O)Nc2ccccc2F)CC1)Nc1ccc(Cl)c(C(F)(F)F)c1	inconclusive: 8.91 µM [inhibitor, partial curve]
COC(=O)C1(C)C=C2C(=C(c3ccccc3)C(=O)C2C)CN1 (configuration not stated)	inactive
CCCN1C(=O)/C(=c2\sc3nc(=O)c(Cc4ccc(C)cc4)nn3c2=O)c2ccccc21	inconclusive: 35.5 µM [inhibitor, single point]

SMILES	Potency
Cc1ccc(C(=O)c2ccccc2C(=O)OCC(=O)Nc2ccc(SC(F)F)cc2)cc1	inactive
O=C(Nc1cc(S(=O)(=O)N2CCOCC2)ccc1N1CCCC1)c1ccc2c(c1)S(=O)(=O)c1ccccc1C2=O	inconclusive: 28.2 µM [inhibitor, partial curve, poor fit]
CC(C)Oc1ccc(CNC(=O)c2ccccc2NC(=O)c2nsc3ccccc23)cc1	inconclusive: 25.1 µM [inhibitor, single point]
Cc1cc[n+](-c2[nH]c(=O)sc2/C=N/N=C(\[O-])CCn2c3ccccc3c3ccccc32)cc1	inconclusive: 25.1 µM [activator, partial curve, poor fit]
O=C(O)CNC(=O)/C(=C/c1cccc([N+](=O)[O-])c1)NC(=O)c1ccco1	inconclusive: 0.251 µM [inhibitor, full curve, poor fit]
COC(=O)c1ccc(CN(Cc2ccc(OC)c(OC)c2)S(=O)(=O)c2cc(C(=O)Nc3cccc(C)c3)ccc2F)cc1	inconclusive: 25.1 µM [inhibitor, partial curve]
O=S(=O)(NCCc1nnc2ccc(SCc3c(F)cccc3Cl)nn12)c1ccccc1	inactive
COc1ccc(/C=N/NS(=O)(=O)c2ccccc2)cc1OS(=O)(=O)c1ccc(C)cc1	inconclusive: 35.5 µM [inhibitor, single point]
Cc1ccc(NC(=O)CSc2nc3ccc(NC(=O)CCc4ccccc4)cc3s2)c(C)c1	inconclusive: 31.6 µM [inhibitor, single point]
CCOC(=O)c1c(NC(=O)c2ccco2)n(C2CCCCC2)c2nc3ccccc3nc12	inconclusive: 39.8 µM [inhibitor, single point]
Clc1cccc(Nc2ncnc3c2cnn3-c2ccccc2)c1	inconclusive: 10 µM [inhibitor, partial curve]
O=C1C2C(C(=O)N1/N=C/c1cc([N+](=O)[O-])ccc1O)C1C=CC2C12CC2 (configuration not stated)	inactive
Cc1cc(NC(=O)c2sccc2C)n(-c2nc3ccccc3[nH]2)n1	inconclusive: 17.8 µM [inhibitor, partial curve]
CC(Oc1ccc(Cl)cc1Cl)c1nc(-c2ccc(NC(=O)c3ccco3)cc2)no1 (configuration not stated)	inconclusive: 20 µM [inhibitor, partial curve]
CC(c1ccccc1)C1CC(=O)N(c2cc(Cl)ccn2)C1=O (configuration not stated)	inactive
O=C(N/N=C/c1c(O)ccc2ccccc12)c1cccc(C(F)(F)F)c1	inconclusive: 28.2 µM [inhibitor, single point]
N#CC1=C2SCN(C3CCCCC3)CN2C(=O)CC1c1ccc(F)cc1 (configuration not stated)	inconclusive: 25.1 µM [inhibitor, partial curve]
O=P(c1ccccc1)(c1ccccc1)N(c1ccccc1)c1ccccc1	inactive
CNC(=S)Nc1ccc(-c2nc3ccc(C)cc3s2)cc1	inconclusive: 31.6 µM [inhibitor, partial curve]
CCOc1cc(-c2nnc(SCC(=O)NCc3ccc(C)cc3)nc2-c2ccc(OC)c(OCC)c2)ccc1OC	inactive
COc1ccc(OC)c(NC(=O)c2nc(SCc3ccccc3F)ncc2Cl)c1	inconclusive: 20 µM [inhibitor, single point]
